First the molecules themselves.
T1: RBFOX1 RRM (Homo sapiens, UniProt Q9NWB1 109-208)
T1 sequence: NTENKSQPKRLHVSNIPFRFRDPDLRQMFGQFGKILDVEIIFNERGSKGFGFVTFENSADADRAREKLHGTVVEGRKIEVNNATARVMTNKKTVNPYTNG

B1: AACCACC (DNA:RNA)
RNA: GGGAGACCGGAAUUCAGAUUGUCCAACCACCUUAAAUCCCGUCGUAGCCACCA
DNA 1: CAATCTGAATTCCGGTCTCCC
DNA 2: TGGTGGCTACGACGGGATT
B2: CCGCGGA (DNA:RNA)
RNA: B1 RNA with A25C, A26C, C27G, A29G, C30G, C31A
DNA 1: CAATCTGAATTCCGGTCTCCC
DNA 2: TGGTGGCTACGACGGGATT
B3: UAUGCUG (DNA:RNA)
RNA: B1 RNA with A25U, C27U, C28G, A29C, C30U, C31G
DNA 1: CAATCTGAATTCCGGTCTCCC
DNA 2: TGGTGGCTACGACGGGATT
B4: GCCGCAA (DNA:RNA)
RNA: B1 RNA with A25G, A26C, C28G, A29C, C30A, C31A
DNA 1: CAATCTGAATTCCGGTCTCCC
DNA 2: TGGTGGCTACGACGGGATT
B5: UACAUAC (DNA:RNA)
RNA: B1 RNA with A25U, C28A, A29U, C30A
DNA 1: CAATCTGAATTCCGGTCTCCC
DNA 2: TGGTGGCTACGACGGGATT
B6: AUAUACG (DNA:RNA)
RNA: B1 RNA with A26U, C27A, C28U, C31G
DNA 1: CAATCTGAATTCCGGTCTCCC
DNA 2: TGGTGGCTACGACGGGATT
B7: CUAUAGC (DNA:RNA)
RNA: B1 RNA with A25C, A26U, C27A, C28U, C30G
DNA 1: CAATCTGAATTCCGGTCTCCC
DNA 2: TGGTGGCTACGACGGGATT
B8: AAGGAGG (DNA:RNA)
RNA: B1 RNA with C27G, C28G, C30G, C31G
DNA 1: CAATCTGAATTCCGGTCTCCC
DNA 2: TGGTGGCTACGACGGGATT
B9: UUGCGGA (DNA:RNA)
RNA: B1 RNA with A25U, A26U, C27G, A29G, C30G, C31A
DNA 1: CAATCTGAATTCCGGTCTCCC
DNA 2: TGGTGGCTACGACGGGATT
B10: ACUUCCA (DNA:RNA)
RNA: B1 RNA with A26C, C27U, C28U, A29C, C31A
DNA 1: CAATCTGAATTCCGGTCTCCC
DNA 2: TGGTGGCTACGACGGGATT
B11: AUCCGCG (DNA:RNA)
RNA: B1 RNA with A26U, A29G, C31G
DNA 1: CAATCTGAATTCCGGTCTCCC
DNA 2: TGGTGGCTACGACGGGATT
B12: AUAUGGC (DNA:RNA)
RNA: B1 RNA with A26U, C27A, C28U, A29G, C30G
DNA 1: CAATCTGAATTCCGGTCTCCC
DNA 2: TGGTGGCTACGACGGGATT
B13: CAUGGUC (DNA:RNA)
RNA: B1 RNA with A25C, C27U, C28G, A29G, C30U
DNA 1: CAATCTGAATTCCGGTCTCCC
DNA 2: TGGTGGCTACGACGGGATT
B14: ACGAUUA (DNA:RNA)
RNA: B1 RNA with A26C, C27G, C28A, A29U, C30U, C31A
DNA 1: CAATCTGAATTCCGGTCTCCC
DNA 2: TGGTGGCTACGACGGGATT
B15: AUGUUAG (DNA:RNA)
RNA: B1 RNA with A26U, C27G, C28U, A29U, C30A, C31G
DNA 1: CAATCTGAATTCCGGTCTCCC
DNA 2: TGGTGGCTACGACGGGATT
B16: GAUUAAC (DNA:RNA)
RNA: B1 RNA with A25G, C27U, C28U, C30A
DNA 1: CAATCTGAATTCCGGTCTCCC
DNA 2: TGGTGGCTACGACGGGATT
B17: UCCAACU (DNA:RNA)
RNA: B1 RNA with A25U, A26C, C28A, C31U
DNA 1: CAATCTGAATTCCGGTCTCCC
DNA 2: TGGTGGCTACGACGGGATT
B18: GAAUCGC (DNA:RNA)
RNA: B1 RNA with A25G, C27A, C28U, A29C, C30G
DNA 1: CAATCTGAATTCCGGTCTCCC
DNA 2: TGGTGGCTACGACGGGATT
B19: CGCCUCU (DNA:RNA)
RNA: B1 RNA with A25C, A26G, A29U, C31U
DNA 1: CAATCTGAATTCCGGTCTCCC
DNA 2: TGGTGGCTACGACGGGATT
B20: GAGCAAC (DNA:RNA)
RNA: B1 RNA with A25G, C27G, C30A
DNA 1: CAATCTGAATTCCGGTCTCCC
DNA 2: TGGTGGCTACGACGGGATT

Substitutions are numbered along the chain they refer to; changes in the protein carry UniProt numbers. The list shows a part of the results.

In this assay the target is T1, RBFOX1 RRM. As to the kind of experiment: EMSA; HiTS-Eq, 1 nM pool, 10 min; buffer printed only for the single-RNA assays: 10 mM Tris pH 7.5, 150 mM NaCl, 3.4 mM EDTA, 0.001% NP-40, 30 C. As to conditions: tags: His6 N-terminal (pET28a); label: 5' 32P. Summed up:
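These values rest on relative association constants, computed from read-count changes of each RNA species versus the control reaction and normalised to the cognate motif. Reads came from free RNA recovered by 8% native PAGE after purified RbFox RRM (wild type or mutant) at increasing concentrations was equilibrated for 10 min in 50 µL with 1 nM of a 5′-radiolabelled pool with 7 randomized nucleotides and DNA-annealed flanks.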
For B1, the binding signal was 0.0024 KA relative to UGCAUGU.

Take B2: the binding signal is 0.00965 KA relative to UGCAUGU.

On to B3, for which the binding signal was 0.0191 KA relative to UGCAUGU.

On to B4, for which the binding signal is 0.014 KA relative to UGCAUGU.

Turning to B5, the binding signal is 0.00108 KA relative to UGCAUGU.

B6: the binding signal is 0.00215 KA relative to UGCAUGU.

As to B7, the binding signal is 0.00226 KA relative to UGCAUGU.

Regarding B8, the binding signal was 0.00964 KA relative to UGCAUGU.

Consider B9, for which the binding signal was 0.0101 KA relative to UGCAUGU.

Consider B10, for which the binding signal is 0.00106 KA relative to UGCAUGU.

Regarding B11, the binding signal was 0.00266 KA relative to UGCAUGU.

Turning to B12, the binding signal was 0.00904 KA relative to UGCAUGU.

B13: the binding signal is 0.0144 KA relative to UGCAUGU.

As to B14, the binding signal is 0.00337 KA relative to UGCAUGU.

In the case of B15, the binding signal is 0.0112 KA relative to UGCAUGU.

Regarding B16, the binding signal is 0.00739 KA relative to UGCAUGU.

With B17, the binding signal was 0.00165 KA relative to UGCAUGU.

B18: the binding signal was 0.011 KA relative to UGCAUGU.

Turning to B19, the binding signal was 0.00986 KA relative to UGCAUGU.

For B20, the binding signal was 0.00999 KA relative to UGCAUGU.

These data come from publication PMC9911399, “Two distinct binding modes provide the RNA-binding protein RbFox with extraordinary sequence specificity”.
